Test results from PubChem BioAssay AID720709 (National Center for Advancing Translational Sciences (NCATS), 2013).
The campaign covered roughly 360,000 compounds. About 520 (0.14%) were called active. The inconclusive results got no clear call from the source; some entries with a clear call stand among them for comparison. Calls come from the whole dose curve; as a rule, active = well fitted inhibition curve with a large enough effect; inconclusive = small, poorly fitted or top-dose-only effect; inactive = no such curve, though single readings can be large or run the other way. Potencies of inconclusive entries are doubtful fits and often do not repeat.

target: Rap guanine nucleotide exchange factor 3 (Homo sapiens) (UniProt O95398); test: qHTS for Antagonist of cAMP-regulated guanine nucleotide exchange factor 3 (EPAC1): primary screen; conditions: EPAC1 GEF assay, Rap1b-BODIPY-GDP exchange fluorescence; series mostly up to 115 µM; note: nearly all actives have a fitted effect of over 50% in size
Potency is the fitted concentration of half-maximal effect; tags give direction and shape of the fitted curve.

Chain of UniProt O95398 (O95398 whole entry, looked up): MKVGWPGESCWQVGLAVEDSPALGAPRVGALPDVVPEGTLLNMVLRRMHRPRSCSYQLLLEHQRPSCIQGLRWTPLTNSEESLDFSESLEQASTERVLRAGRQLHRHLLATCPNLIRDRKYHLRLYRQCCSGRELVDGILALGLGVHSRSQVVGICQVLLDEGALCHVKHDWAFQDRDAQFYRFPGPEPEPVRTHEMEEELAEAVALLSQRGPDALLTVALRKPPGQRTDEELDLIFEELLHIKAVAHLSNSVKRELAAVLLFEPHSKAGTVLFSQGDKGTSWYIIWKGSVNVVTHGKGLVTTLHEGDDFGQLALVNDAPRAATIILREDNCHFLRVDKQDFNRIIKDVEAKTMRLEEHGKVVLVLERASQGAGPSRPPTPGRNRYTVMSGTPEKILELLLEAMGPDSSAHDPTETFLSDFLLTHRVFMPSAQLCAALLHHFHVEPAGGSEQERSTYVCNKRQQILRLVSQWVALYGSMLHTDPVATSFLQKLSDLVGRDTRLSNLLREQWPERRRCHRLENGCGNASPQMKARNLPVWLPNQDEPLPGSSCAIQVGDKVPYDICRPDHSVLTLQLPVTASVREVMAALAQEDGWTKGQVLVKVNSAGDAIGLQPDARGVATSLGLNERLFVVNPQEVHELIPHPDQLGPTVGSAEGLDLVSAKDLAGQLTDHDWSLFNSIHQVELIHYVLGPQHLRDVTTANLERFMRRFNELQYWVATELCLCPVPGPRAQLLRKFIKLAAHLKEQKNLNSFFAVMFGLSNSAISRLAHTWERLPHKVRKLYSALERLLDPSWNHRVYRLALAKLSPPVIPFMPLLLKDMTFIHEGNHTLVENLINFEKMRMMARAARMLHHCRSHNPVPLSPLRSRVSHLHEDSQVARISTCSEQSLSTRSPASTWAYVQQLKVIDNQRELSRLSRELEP

Potency, inactive:
CN(C)/C=C1\N=C(c2ccccc2)OC1=O
Cc1cc(O)c(-c2cc(O)c(C)cc2O)cc1O
CC(C)C1=CC(=Nc2ccc(S(N)(=O)=O)cc2)C=C(C(C)C)C1=O
CCOc1ncccc1C(=O)NCc1ccc(OC)c(OC)c1
CC1(C)CC(=O)c2c(oc3cc(O)c(O)cc23)C1
COc1ccc(/C(O)=C/C(=O)C(=O)NNC(=O)c2ccccc2)cc1
Cc1ccc(CNc2nc3cc(-c4ccccc4)sc3c(=O)n2C)c(C)c1
COC(=O)c1sc(NC(=O)c2cc(C)on2)nc1C
CCOc1ccc(/C=C/C(=O)c2ccccc2)cc1OC
Cn1cc(CN2CCC(C(=O)NC(c3ccc(F)cc3)c3ccc4ccccc4n3)CC2)c2ccccc21 (configuration not stated)
N#CC[C@H](c1ccccc1)N1CCN(Cc2ccccc2)CCC1=O
O=C(C[C@@H]1CC[C@@H]2[C@H](COC[C@H](O)CN2C(=O)Nc2ccc(F)cc2)O1)NCCc1ccncc1

Potency, inconclusive:
CCNc1ccc(Br)cc(C(=O)/C=C/c2c(Cl)cccc2Cl)c1=O 79.4 µM [inhibitor, partial curve]
COc1ccc(S(=O)(=O)NCc2cccnc2)cc1NC(=O)c1ccccc1C 100 µM [inhibitor, partial curve]
O=C(COC(=O)CCCN1C(=O)c2cccc3cccc(c23)C1=O)Nc1cccc(Br)c1 56.2 µM [inhibitor, single point]
c1ccc2c(c1)nnn2-c1ncnc2sccc12 2.82 µM [inhibitor, full curve, poor fit]
Nc1cc(S(=O)(=O)N2CCCCC2)ccc1N1CCOCC1 63.1 µM [inhibitor, partial curve, poor fit]
COc1ccc(C(=O)N2CCN(c3ccccc3OC)CC2)cc1 100 µM [inhibitor, single point]
COC(=O)[C@]12CCCCC=C1N(CCC1=CCCCC1)C(=O)[C@H](CC(=O)NCc1cccc(C(F)(F)F)c1)C2 39.8 µM [inhibitor, partial curve]
OC(c1cccc(Cl)c1)c1ncc(-c2ccccc2Cl)[nH]1 (configuration not stated) 50.1 µM [inhibitor, partial curve]
COc1ccc(NC(=O)Nc2ccc3c(c2)C(=O)N([C@H](C)CO)C[C@H](C)[C@@H](CN(C)S(=O)(=O)c2ccccc2)O3)cc1 70.8 µM [inhibitor, single point]
N#C/C(=N\Nc1cccc([N+](=O)[O-])c1)C(=O)c1ccc(Br)cc1 89.1 µM [inhibitor, partial curve]
C=CCOc1cccc(C(=O)N2CCCC(CNS(=O)(=O)c3cccs3)C2)c1 (configuration not stated) 7.08 µM [inhibitor, partial curve, poor fit]
CCOC(=O)C(C)n1cnc2scc(-c3ccc(C)cc3)c2c1=O (configuration not stated) 89.1 µM [inhibitor, single point]
Cc1nn(C)c(Nc2ccc(Br)cc2)c1Br 10 µM [inhibitor, partial curve]
CC(=O)c1c(C(C)=O)c(C)n(-c2nc(-c3ccccc3)c(C)s2)c1C 14.1 µM [inhibitor, partial curve]
COc1ccc(-c2nn(-c3ccccc3)cc2C(=O)O)cc1N 8.91 µM [inhibitor, partial curve]
COC(=O)c1cc(S(=O)(=O)N2CCN(c3ccc([N+](=O)[O-])cc3)CC2)c[nH]1 7.94 µM [inhibitor, full curve, poor fit]
COc1ccc(Cn2nnnc2CN2CCC(O)(c3ccccc3F)CC2)cc1 100 µM [inhibitor, single point]
COc1ccccc1/C=C/C(=O)NCC(=O)N/N=C(/C)c1ccc(Cl)cc1 3.55 µM [inhibitor, full curve, poor fit]
Cc1ccc(C2OC34CCCCCC3C(C#N)(C(=N)O4)C2(C#N)C#N)cc1 (configuration not stated) 56.2 µM [inhibitor, partial curve]
O=C(O)C(C/C(=N/O)c1ccc(Br)cc1)P(=O)(c1ccccc1)c1ccccc1 (configuration not stated) 2.82 µM [inhibitor, full curve, poor fit]
COc1ccc(CNC(=O)c2ccc(Cl)c(NC3=NC4CS(=O)(=O)CC4S3)c2)cc1 (configuration not stated) 100 µM [inhibitor, single point]
O=C(Nc1ccc(Cl)cc1)Nc1ccccc1NS(=O)(=O)c1cccs1 50.1 µM [inhibitor, partial curve]
Cc1ccc(Nc2nc(NCc3ccco3)c3ccccc3n2)cc1 89.1 µM [inhibitor, single point]
COc1ccc(CCNC(=O)c2ccc3c(c2)NC(=O)CS3)cc1OC 2.82 µM [inhibitor, full curve, poor fit]
COC(=O)c1sccc1NC(=O)C1C2C=CC(C2)C1C(=O)O (configuration not stated) 89.1 µM [inhibitor, single point]
CCn1c(SCC(=O)c2ccc(O)c(O)c2)nnc1-c1ccccc1OC 50.1 µM [inhibitor, partial curve]
O=C(c1ccco1)c1nnn(Cc2ccccc2)c1-c1ccccc1 22.4 µM [inhibitor, partial curve]
COc1ccc(/C(O)=C2/C(=O)C(=O)N(c3ccccn3)C2c2cccc(Cl)c2)cc1 (configuration not stated) 14.1 µM [inhibitor, single point]
CCn1c(C)nc2cc(C(=O)N/N=C/c3cccc(O)c3O)ccc21 14.1 µM [inhibitor, full curve, poor fit]
CCC(=O)c1c(NC(C)C)cc(C)oc1=O 100 µM [inhibitor, single point]
